The source of these data is paper PMC11995724, “Antibiotic target discovery by integrated phenotypic and activity-based profiling of electrophilic fragments” (Cell chemical biology, 2025).

Among all 3,200 compounds or so, about 75 (2%) showed an effect of 50% or more. The list shows a part of the results.

For this experiment, the system named is T1, S. aureus MSSA476.
T1 construct: MSSA476
On the set-up: species or system S. aureus MSSA476 (TSB) or V. cholerae SAD30 (LB); 384-well bacterial growth screen at 25 uM, OD600 relative to DMSO control. As to conditions: relative growth, OD600, TSB; 25 µM; inhibitor.
Turning to `C=CC(=O)N1CCCC(NS(=O)(=O)c2cccc(F)c2)C1` (stereo not shown) [3-G15, 3-fluoro-N-[1-(prop-2-enoyl)piperidin-3-yl]benzene-1-sulfonamide], the “% of control remaining” value is recorded as 112.146%.

Consider `C=CC(=O)N(CCO)c1ccc(C(=O)O)cc1` [1-M10, 4-[N-(2-hydroxyethyl)prop-2-enamido]benzoic acid], for which the “% of control remaining” value came out at 117.451%.

In the case of `CC(Cl)C(=O)N1CCN(C(C)C)c2ccccc2C1` (stereo not shown) [7-O07, 2-chloro-1-[1-(propan-2-yl)-2,3,4,5-tetrahydro-1H-1,4-benzodiazepin-4-yl]propan-1-one], the “% of control remaining” value is listed as 99.843%.

`CCc1nsc(N2CCN(C(=O)C(C#N)=Cc3ccco3)CC2)n1` [9-K05, 2-[4-(3-ethyl-1,2,4-thiadiazol-5-yl)piperazine-1-carbonyl]-3-(furan-2-yl)prop-2-enenitrile]: the “% of control remaining” value stood at 96.779%.

Consider `CC(Cl)C(=O)Nc1ccc([N+](=O)[O-])cc1C(F)(F)F` (stereo not shown) [6-D06, 2-chloro-N-[4-nitro-2-(trifluoromethyl)phenyl]propanamide], for which the “% of control remaining” value came to 89.8049%.

Consider `CC(Cl)C(=O)N1CCCc2c1ccnc2N(C)C` (stereo not shown) [6-D14, 2-chloro-1-[5-(dimethylamino)-1,2,3,4-tetrahydro-1,6-naphthyridin-1-yl]propan-1-one], for which the “% of control remaining” value was 108.585%.

As for `C=CC(=O)N1CCC(Cc2noc(C)n2)CC1` [2-G22, 1-{4-[(5-methyl-1,2,4-oxadiazol-3-yl)methyl]piperidin-1-yl}prop-2-en-1-one], the “% of control remaining” value was determined as 99.913%.

For `C=CC(=O)Nc1cnc(S(C)(=O)=O)c(C)c1` [2-O14, N-(6-methanesulfonyl-5-methylpyridin-3-yl)prop-2-enamide], the “% of control remaining” value amounted to 109.661%.

Regarding `COc1ccc2cc(C=C(C#N)C(=O)Nc3nccs3)ccc2c1` [9-E08, 2-cyano-3-(6-methoxynaphthalen-2-yl)-N-(1,3-thiazol-2-yl)prop-2-enamide], the “% of control remaining” value was determined as 100.375%.

As to `C=CC(=O)N(C)CC(=O)N1CCC(C)(c2nc(C)no2)CC1` [2-B22, N-methyl-N-{2-[4-methyl-4-(3-methyl-1,2,4-oxadiazol-5-yl)piperidin-1-yl]-2-oxoethyl}prop-2-enamide], the “% of control remaining” value was found to be 110.009%.

For `CN(C)c1nc(N2CCOCC2)ncc1NC(=O)CCl` [5-M22, 2-chloro-N-[4-(dimethylamino)-2-(morpholin-4-yl)pyrimidin-5-yl]acetamide], the “% of control remaining” value is given as 96.9035%.

On to `C=CC(=O)NCC1CCC2(CCCC2)O1` (stereo not shown) [1-A06, N-({1-oxaspiro[4.4]nonan-2-yl}methyl)prop-2-enamide], for which the “% of control remaining” value is recorded as 112.176%.

For the compound `C=CC(=O)NCc1ncccc1-n1cccn1` [2-N19, N-{[3-(1H-pyrazol-1-yl)pyridin-2-yl]methyl}prop-2-enamide], the “% of control remaining” value turned out to be 137.511%.

Regarding `C=CC(=O)N1CCC(C(=O)N2CCCN(c3nccs3)CC2)CC1` [2-L20, 1-{4-[4-(1,3-thiazol-2-yl)-1,4-diazepane-1-carbonyl]piperidin-1-yl}prop-2-en-1-one], the “% of control remaining” value amounted to 104.787%.

`CC(C)(CNC(=O)CCl)CC1CCOCC1` [6-C04, 2-chloro-N-[2,2-dimethyl-3-(oxan-4-yl)propyl]acetamide]: the “% of control remaining” value came out at 94.2439%.

In the case of `CNS(=O)(=O)c1cc(NC(=O)CCl)ccc1C` [6-M07, 2-chloro-N-[4-methyl-3-(methylsulfamoyl)phenyl]acetamide], the “% of control remaining” value is listed as 112.341%.

Consider `C=CC(=O)N1CCC(C(=O)N[C@@H](C)c2ccc(Cl)s2)CC1` [3-E22, N-[(1S)-1-(5-chlorothiophen-2-yl)ethyl]-1-(prop-2-enoyl)piperidine-4-carboxamide], for which the “% of control remaining” value amounted to 107.27%.

On to `C=CC(=O)N1CCOCC1c1noc(C)n1` (stereo not shown) [3-O11, 1-[3-(5-methyl-1,2,4-oxadiazol-3-yl)morpholin-4-yl]prop-2-en-1-one], for which the “% of control remaining” value is recorded as 92.9909%.

With `C=CC(=O)NCc1ccc(C(=O)N2CCOCC2)cc1` [1-L17, N-{[4-(morpholine-4-carbonyl)phenyl]methyl}prop-2-enamide], the “% of control remaining” value worked out at 103.736%.

As for `CC(NC(=O)C(C#N)=Cc1cnn(C)c1)c1ccccc1` (stereo not shown) [8-N10, 2-cyano-3-(1-methyl-1H-pyrazol-4-yl)-N-(1-phenylethyl)prop-2-enamide], the “% of control remaining” value amounted to 95.9336%.

On to `C=CC(=O)N1Cc2cnn(C)c2C1` [3-P14, 1-{1-methyl-1H,4H,5H,6H-pyrrolo[3,4-c]pyrazol-5-yl}prop-2-en-1-one], for which the “% of control remaining” value came to 91.946%.

For the compound `Cc1cc(CC(C)NC(=O)C(C)Cl)n(-c2ccccc2)n1` (stereo not shown) [7-H21, 2-chloro-N-[1-(3-methyl-1-phenyl-1H-pyrazol-5-yl)propan-2-yl]propanamide], the “% of control remaining” value was found to be 81.0047%.

Consider `C=CC(=O)N(C)CC1(O)CCc2ccccc21` (stereo not shown) [3-D11, N-[(1-hydroxy-2,3-dihydro-1H-inden-1-yl)methyl]-N-methylprop-2-enamide], for which the “% of control remaining” value is given as 111.101%.

As for `C=CC(=O)NC1COCC1C` (stereo not shown) [1-D06, N-(4-methyloxolan-3-yl)prop-2-enamide], the “% of control remaining” value amounted to 101.275%.

Consider `CCc1oc2ccccc2c1C=C(C#N)C(=O)NC1CC1` [9-M12, 2-cyano-N-cyclopropyl-3-(2-ethyl-1-benzofuran-3-yl)prop-2-enamide], for which the “% of control remaining” value is recorded as 127.64%.

For the compound `C=CC(=O)NCc1cc(Cl)c2c(c1)OCCO2` [1-L05, N-[(8-chloro-2,3-dihydro-1,4-benzodioxin-6-yl)methyl]prop-2-enamide], the “% of control remaining” value is 104.791%.

For `CSC1=C(C#N)C2(CCCCC2)C(C#N)=C(NC(=O)CCl)N1` [4-E10, 2-chloro-N-[1,5-dicyano-4-(methylsulfanyl)-3-azaspiro[5.5]undeca-1,4-dien-2-yl]acetamide], the “% of control remaining” value was found to be 96.4269%.

Regarding `Cc1noc(C)c1C(C)CNC(=O)C(C)Cl` (stereo not shown) [6-P19, 2-chloro-N-[2-(3,5-dimethyl-1,2-oxazol-4-yl)propyl]propanamide], the “% of control remaining” value is reported as 92.878%.
